# In the supplement of paper PMC8728848:
# Some of the results follow.
# B1: HMGB1 (Homo sapiens), P09429 (protein)
# chain: MGKGDPKKPRGKMSSYAFFVQTCREEHKKKHPDASVNFSEFSKKCSERWKTMSAKEKGKFEDMAKADKARYEREMKTYIPPKGETKKKFKDPNAPKRPPSAFFLFCSEYRPKIKGEHPGLSIGDVAKKLGEMWNNTAADDKQPYEKKAAKLKEKYEKDIAAYRAKGKPDAAKKGVVKAEKSKKKKEEEEDEEDEEDEEEEEDEEDEDEEEDDDDE
# Tests used:
# Assay in all cases: glycan array binding signal (z-score within array); higher = stronger binding
# Details in all cases: glycan notation: IUPAC condensed, linker removed
# [1] = biological target: Gal(b1-3)[Neu5Ac(a2-6)]GalNAc
# Summary of the method: (§1)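 Glycan array data were curated from 3228 arrays in the Consortium for Functional Glycomics database and kept only where the protein sequence was available. Glycan names were converted to IUPAC-condensed notation, and columns mapping to the same glycan were averaged. The binding signal is a within-array Z-score, averaged across arrays of the same protein sequence at different concentrations or buffers and across linkers. Negative Z-scores can be read as non-binding.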
# [2] = biological target: Gal(b1-3)[Neu5Ac(a2-6)]GlcNAc
# Summary of the method: as §1
# [3] = biological target: Gal(b1-3)[Neu5Ac(a2-6)]GlcNAc(a1-4)Gal(b1-4)Glc
# Summary of the method: as §1
# [4] = biological target: Gal(b1-3)[Neu5Ac(b2-6)]GlcNAc
# Summary of the method: as §1
# [5] = biological target: Gal(b1-4)GalNAc(a1-3)[Fuc(a1-2)]Gal(b1-4)GlcNAc
# Summary of the method: as §1
# [6] = biological target: Gal(b1-4)GalNAc(b1-3)[Fuc(a1-2)]Gal(b1-4)GlcNAc
# Summary of the method: as §1
# [7] = biological target: Gal(b1-4)Glc
# Summary of the method: as §1
# [8] = biological target: Gal(b1-4)Glc6S
# Summary of the method: as §1
# [9] = biological target: Gal(b1-4)GlcNAc
# Summary of the method: as §1
# [10] = biological target: Gal(b1-4)GlcNAc(b1-2)Man(a1-3)[Gal(b1-4)GlcNAc(b1-2)Man(a1-6)]Man(b1-4)GlcNAc(b1-4)GlcNAc
# Summary of the method: as §1
# [11] = biological target: Gal(b1-4)GlcNAc(b1-3)Gal(b1-4)Glc
# Summary of the method: as §1
# [12] = biological target: Gal(b1-4)GlcNAc(b1-3)Gal(b1-4)GlcNAc
# Summary of the method: as §1
# [13] = biological target: Gal(b1-4)GlcNAc(b1-3)Gal(b1-4)GlcNAc(b1-3)Gal(b1-4)GlcNAc
# Summary of the method: as §1
# [14] = biological target: Gal(b1-4)GlcNAc(b1-3)Gal(b1-4)[Fuc(a1-3)]GlcNAc(b1-3)Gal(b1-4)[Fuc(a1-3)]GlcNAc
# Summary of the method: as §1
# [15] = biological target: Gal(b1-4)GlcNAc(b1-3)GalNAc
# Summary of the method: as §1
# [16] = biological target: Gal(b1-4)GlcNAc(b1-3)[Gal(b1-4)GlcNAc(b1-6)]GalNAc
# Summary of the method: as §1
# [17] = biological target: Gal(b1-4)GlcNAc(b1-6)GalNAc
# Summary of the method: as §1
# [18] = biological target: Gal(b1-4)GlcNAc(b1-6)[Gal(b1-3)]GalNAc
# Summary of the method: as §1
# [19] = biological target: Gal(b1-4)GlcNAc(b1-6)[Gal(b1-3)]GlcNAc
# Summary of the method: as §1
# [20] = biological target: Gal3S(b1-3)GalNAc
# Summary of the method: as §1
# [21] = biological target: Gal3S(b1-3)GlcNAc
# Summary of the method: as §1
# [22] = biological target: Gal3S(b1-3)[Fuc(a1-4)]GlcNAc
# Summary of the method: as §1
# [23] = biological target: Gal3S(b1-4)Glc
# Summary of the method: as §1
# [24] = biological target: Gal3S(b1-4)Glc6S
# Summary of the method: as §1
# [25] = biological target: Gal3S(b1-4)GlcNAc
# Summary of the method: as §1
# [26] = biological target: Gal3S(b1-4)GlcNAc6S
# Summary of the method: as §1
# [27] = biological target: Gal3S6S(b1-4)GlcNAc
# Summary of the method: as §1
# [28] = biological target: Gal3S6S(b1-4)GlcNAc6S
# Summary of the method: as §1
# [29] = biological target: Gal4S(b1-4)GlcNAc
# Summary of the method: as §1
# [30] = biological target: Gal4S6S(b1-4)GlcNAc
# Summary of the method: as §1
# [31] = biological target: Gal6S(b1-4)Glc
# Summary of the method: as §1
# [32] = biological target: Gal6S(b1-4)Glc6S
# Summary of the method: as §1
# [33] = biological target: Gal6S(b1-4)GlcNAc
# Summary of the method: as §1
# [34] = biological target: GalNAc(a1-3)Gal
# Summary of the method: as §1
# [35] = biological target: GalNAc(a1-3)GalNAc
# Summary of the method: as §1
# [36] = biological target: GalNAc(b1-3)Gal(a1-4)Gal(b1-4)GlcNAc
# Summary of the method: as §1
# [37] = biological target: GalNAc(b1-4)GlcNAc
# Summary of the method: as §1
# [38] = biological target: Glc(a1-4)Glc
# Summary of the method: as §1
# [39] = biological target: Glc(a1-6)Glc(a1-6)Glc
# Summary of the method: as §1
# [40] = biological target: Glc(b1-4)Glc
# Summary of the method: as §1
# [41] = biological target: Glc(b1-6)Glc
# Summary of the method: as §1
# [42] = biological target: GlcA(b1-3)Gal
# Summary of the method: as §1
# [43] = biological target: GlcA(b1-6)Gal
# Summary of the method: as §1
# [44] = biological target: GlcNAc(a1-3)Gal(b1-4)GlcNAc
# Summary of the method: as §1
# [45] = biological target: GlcNAc(a1-6)Gal(b1-4)GlcNAc
# Summary of the method: as §1
# [46] = biological target: GlcNAc(b1-2)Gal(b1-3)GlcNAc
# Summary of the method: as §1
# [47] = biological target: GlcNAc(b1-2)Man(a1-3)[GlcNAc(b1-2)Man(a1-6)]Man(b1-4)GlcNAc(b1-4)GlcNAc
# Summary of the method: as §1
# [48] = biological target: GlcNAc(b1-3)Gal
# Summary of the method: as §1
# [49] = biological target: GlcNAc(b1-3)Gal(b1-3)GalNAc
# Summary of the method: as §1
# [50] = biological target: GlcNAc(b1-3)Gal(b1-4)Glc
# Summary of the method: as §1
# [51] = biological target: GlcNAc(b1-3)Gal(b1-4)GlcNAc
# Summary of the method: as §1
# [52] = biological target: GlcNAc(b1-3)Gal(b1-4)GlcNAc(b1-3)Gal(b1-4)GlcNAc
# Summary of the method: as §1
# [53] = biological target: GlcNAc(b1-3)GalNAc
# Summary of the method: as §1
# [54] = biological target: GlcNAc(b1-3)[GlcNAc(b1-4)][GlcNAc(b1-6)]GlcNAc
# Summary of the method: as §1
# [55] = biological target: GlcNAc(b1-3)[GlcNAc(b1-6)]Gal(b1-4)GlcNAc
# Summary of the method: as §1
# [56] = biological target: GlcNAc(b1-3)[GlcNAc(b1-6)]GlcNAc
# Summary of the method: as §1
# [57] = biological target: GlcNAc(b1-4)Gal(b1-4)GlcNAc
# Summary of the method: as §1
# [58] = biological target: GlcNAc(b1-4)GlcNAc(b1-4)GlcNAc
# Summary of the method: as §1
# [59] = biological target: GlcNAc(b1-4)GlcNAc(b1-4)GlcNAc(b1-4)GlcNAc(b1-4)GlcNAc
# Summary of the method: as §1
# [60] = biological target: GlcNAc(b1-4)GlcNAc(b1-4)GlcNAc(b1-4)GlcNAc(b1-4)GlcNAc(b1-4)GlcNAc
# Summary of the method: as §1
# [61] = biological target: GlcNAc(b1-4)[GlcNAc(b1-6)]GalNAc
# Summary of the method: as §1
# [62] = biological target: GlcNAc(b1-6)Gal(b1-4)GlcNAc
# Summary of the method: as §1
# [63] = biological target: GlcNAc(b1-6)GalNAc
# Summary of the method: as §1
# [64] = biological target: Kdn(a2-3)Gal(b1-3)GlcNAc
# Summary of the method: as §1
binder,measurement,setting,value
B1,glycan array binding signal (z-score),[1],0.022
same,glycan array binding signal (z-score),[2],-0.354
same,glycan array binding signal (z-score),[3],0.029
same,glycan array binding signal (z-score),[4],-0.3
same,glycan array binding signal (z-score),[5],-0.337
same,glycan array binding signal (z-score),[6],-0.422
same,glycan array binding signal (z-score),[7],-0.299
same,glycan array binding signal (z-score),[8],-0.223
same,glycan array binding signal (z-score),[9],-0.404
same,glycan array binding signal (z-score),[10],-0.471
same,glycan array binding signal (z-score),[11],-0.227
same,glycan array binding signal (z-score),[12],-0.389
same,glycan array binding signal (z-score),[13],-0.304
same,glycan array binding signal (z-score),[14],-0.364
same,glycan array binding signal (z-score),[15],-0.452
same,glycan array binding signal (z-score),[16],-0.184
same,glycan array binding signal (z-score),[17],0.008
same,glycan array binding signal (z-score),[18],0.127
same,glycan array binding signal (z-score),[19],-0.411
same,glycan array binding signal (z-score),[20],-0.297
same,glycan array binding signal (z-score),[21],-0.166
same,glycan array binding signal (z-score),[22],-0.33
same,glycan array binding signal (z-score),[23],-0.351
same,glycan array binding signal (z-score),[24],1.7
same,glycan array binding signal (z-score),[25],0.093
same,glycan array binding signal (z-score),[26],3.64
same,glycan array binding signal (z-score),[27],3.32
same,glycan array binding signal (z-score),[28],4.75
same,glycan array binding signal (z-score),[29],0.127
same,glycan array binding signal (z-score),[30],3.25
same,glycan array binding signal (z-score),[31],-0.252
same,glycan array binding signal (z-score),[32],1.42
same,glycan array binding signal (z-score),[33],0.184
same,glycan array binding signal (z-score),[34],-0.403
same,glycan array binding signal (z-score),[35],-0.292
same,glycan array binding signal (z-score),[36],-0.482
same,glycan array binding signal (z-score),[37],-0.432
same,glycan array binding signal (z-score),[38],-0.36
same,glycan array binding signal (z-score),[39],-0.364
same,glycan array binding signal (z-score),[40],-0.365
same,glycan array binding signal (z-score),[41],-0.253
same,glycan array binding signal (z-score),[42],-0.1
same,glycan array binding signal (z-score),[43],0.008
same,glycan array binding signal (z-score),[44],-0.438
same,glycan array binding signal (z-score),[45],-0.299
same,glycan array binding signal (z-score),[46],-0.455
same,glycan array binding signal (z-score),[47],0.079
same,glycan array binding signal (z-score),[48],0.11
same,glycan array binding signal (z-score),[49],-0.478
same,glycan array binding signal (z-score),[50],-0.22
same,glycan array binding signal (z-score),[51],0.445
same,glycan array binding signal (z-score),[52],-0.417
same,glycan array binding signal (z-score),[53],0.247
same,glycan array binding signal (z-score),[54],-0.309
same,glycan array binding signal (z-score),[55],-0.443
same,glycan array binding signal (z-score),[56],-0.358
same,glycan array binding signal (z-score),[57],0.617
same,glycan array binding signal (z-score),[58],-0.322
same,glycan array binding signal (z-score),[59],0.146
same,glycan array binding signal (z-score),[60],-0.286
same,glycan array binding signal (z-score),[61],-0.433
same,glycan array binding signal (z-score),[62],-0.489
same,glycan array binding signal (z-score),[63],-0.36
same,glycan array binding signal (z-score),[64],-0.363
